# Test results published in PubChem BioAssay (Tox21).
# “And” between values parts separate entries of the source, which are not always exact repeats. Equal entries are not always repeated. The inconclusive results got no clear call from the source; some entries with a clear call stand among them for comparison. A potency beside an inconclusive call is a rough fit, not a confirmed value. Some structures have more than one record in an assay (separate samples or runs), and their calls can disagree. The source made the active and inactive calls. The call rests on the fitted dose curve; in most records, active means well fitted curve in the direction sought with a large enough effect in the repeat runs; inconclusive means weak or mixed curves; inactive means no such curve, though single readings can be large; an effect the other way counts as inactive or inconclusive.
# Tests used:
# [1] = A CellTox Green Cytotoxicity Assay to monitor cytotoxicity in HepG2 cells - 24 hour (AID 1224878); settings: CellTox Green fluorescence; series mostly up to 76.8 µM; further: nearly all actives have a fitted effect of over 45% in size
# Procedure, shortened: (§1)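 Nonlytic assay: viable cells exclude the dye, so fluorescence scales with cell death. HepG2 at 600 cells/well, compounds added after 5 h, signal read across 40 h.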
# [2] = A CellTox Green Cytotoxicity Assay to monitor cytotoxicity in HepG2 cells - 40 hour (AID 1224879); settings: CellTox Green fluorescence; series mostly up to 76.8 µM; further: nearly all actives have a fitted effect of over 40% in size
# Procedure, shortened: as §1
# [3] = A CellTox Green Cytotoxicity Assay to monitor cytotoxicity in HEK293 cells - 32 hour (AID 1224881); settings: CellTox Green fluorescence; series mostly up to 76.8 µM; further: nearly all actives have a fitted effect of over 40% in size
# Procedure, shortened: (§2)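 Seeding of HEK293 cells together with cytotoxicity dye preceded a 5 h incubation at 37 C/5% CO2. Test compounds in DMSO were then added and fluorescence monitored across 40 h.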
# [4] = A CellTox Green Cytotoxicity Assay to monitor cytotoxicity in HepG2 cells - 32 hour (AID 1224883); settings: CellTox Green fluorescence; series mostly up to 76.8 µM; further: nearly all actives have a fitted effect of over 50% in size
# Procedure, shortened: as §1
# [5] = qHTS RealTime-Glo MT Cell Viability Assay in HEK293 cells - 0 hour (AID 1224880); settings: RealTime-Glo luminescence; series mostly up to 76.8 µM; further: nearly all actives have a fitted effect of over 45% in size
# Procedure, shortened: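 Tox21 screen in HEK293 using RealTime-Glo MT chemistry, with cells and reagent co-dispensed. Luminescence proportional to viable cell number was captured at intervals during 40 h compound exposure at 37 C.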
# [6] = A CellTox Green Cytotoxicity Assay to monitor cytotoxicity in HEK293 cells - 8 hour (AID 1224884); settings: CellTox Green fluorescence; series mostly up to 76.8 µM; further: nearly all actives have a fitted effect of over 35% in size
# Procedure, shortened: as §2
# Potency means the concentration at half of the fitted maximal effect; tags describe the fitted curve by direction and shape.
smiles,measurement,setting,value
C=CC(=O)OCC(CC)(COC(=O)C=C)COC(=O)C=C,Potency,[1],"active: 14.2 µM and inconclusive: 54.9 µM [activator, single point]"
same,Potency,[2],"active: 12.6 µM and inconclusive: 15.5 µM [activator, single point]"
same,Potency,[3],active: 5.64 µM and active: 11 µM
same,Potency,[4],"inconclusive: 30.9 µM [activator, single point]"
CCOP(=S)(OCC)SC(CCl)N1C(=O)c2ccccc2C1=O (centres undefined),Potency,[1],"inconclusive: 54.9 µM [activator, single point]"
same,Potency,[2],"inconclusive: 54.9 µM [activator, single point]"
same,Potency,[5],"inconclusive: 19.5 µM [falling, partial curve, poor fit]"
[Cl][Hg][c]1ccccc1,Potency,[1],active: 3.47 µM
same,Potency,[3],active: 2.19 µM
same,Potency,[4],active: 2.45 µM
CC(=O)[O][Pb]([c]1ccccc1)([c]1ccccc1)[c]1ccccc1,Potency,[1],active: 1.38 µM
same,Potency,[5],"inconclusive: 54.9 µM [falling, single point]"
same,Potency,[3],active: 3.09 µM
[CH3][Sn]([CH3])([Cl])[Cl],Potency,[2],"inconclusive: 55.9 µM [activator, single point] and inconclusive: 49 µM [activator, single point]"
COc1ccc2[nH]cc(CCN(C(C)C)C(C)C)c2c1,Potency,[2],"inconclusive: 63.2 µM [activator, single point]"
Cl[C@H]1OCCO[C@@H]1Cl,Potency,[1],inactive
same,Potency,[6],"inconclusive: 13.5 µM [activator, partial curve]"
N#Cc1c2ccccc2cc2ccccc12,Potency,[2],"inconclusive: 54.8 µM [activator, partial curve, poor fit]"
Nc1c(Cl)c(F)nc(OCC(=O)O)c1Cl,Potency,[1],inactive
same,Potency,[5],inactive
C[C@@H]1C[C@@H]([C@H](O)CC2CC(=O)NC(=O)C2)C(=O)[C@@H](C)C1,Potency,[2],inactive
Cc1ccc2ccccc2c1,Potency,[1],inactive
BrCC(Br)(Br)Br,Potency,[1],inactive
CC(C)C(=O)OCC(C)(C)C(OC(=O)C(C)C)C(C)C (centres undefined),Potency,[2],inactive
Clc1ccc(C(c2ccc(Cl)cc2)C(Cl)(Cl)Cl)cc1,Potency,[1],"inconclusive: 49 µM [activator, single point]"
same,Potency,[3],"inconclusive: 7.76 µM [activator, full curve, poor fit]"
same,Potency,[4],"inconclusive: 49 µM [activator, partial curve]"
same,Potency,[6],"inconclusive: 55.3 µM [activator, single point]"
O=C(N[C@H]1CN2CCC1CC2)c1cc2ccoc2cn1,Potency,[1],"inconclusive: 24.5 µM [activator, single point]"
same,Potency,[2],"inconclusive: 21.9 µM [activator, single point]"
same,Potency,[4],"inconclusive: 21.9 µM [activator, single point]"
Cc1ccc2c(c1N)C(=O)c1ccccc1C2=O,Potency,[1],inactive
same,Potency,[5],inactive
CCCCCCCCCCCCCC[P+](CCCCCC)(CCCCCC)CCCCCC,Potency,[1],active: 11 µM and active: 17.5 µM
same,Potency,[5],"inconclusive: 49.4 µM [falling, single point]"
same,Potency,[3],"active: 12.4 µM and active: 19.7 µM and inconclusive: 21.8 µM [activator, full curve, poor fit]"
same,Potency,[4],"inconclusive: 54.9 µM [activator, single point]"
Cc1ccc(N=C=O)cc1N=C=O,Potency,[1],inactive
CCCN(CCC)c1c([N+](=O)[O-])cc(S(N)(=O)=O)cc1[N+](=O)[O-],Potency,[1],active: 13.1 µM
same,Potency,[6],"inconclusive: 5.22 µM [activator, full curve, poor fit]"
O=C1c2ccccc2C(=O)N1SC(Cl)(Cl)Cl,Potency,[1],active: 34.2 µM and active: 21.9 µM
same,Potency,[2],active: 21.6 µM and active: 12.3 µM
same,Potency,[4],active: 24.2 µM and active: 12.3 µM
same,Potency,[6],"inconclusive: 54.2 µM [activator, single point]"
Clc1ccccc1Cl,Potency,[1],"inconclusive: 54.9 µM [activator, single point]"
same,Potency,[4],"inconclusive: 54.9 µM [activator, single point]"
Cc1cccc(C)c1NC(=O)CN1CCCC1=O,Potency,[1],"inconclusive: 61.7 µM [activator, single point]"
same,Potency,[2],"inconclusive: 54.9 µM [activator, single point]"
same,Potency,[4],"inconclusive: 54.9 µM [activator, single point]"
